Reference: the supplement of paper PMC4967469
By IC50 is meant the dose at which the fit gives 50% viability; fits outside the tested doses are given as limits. The AUC spans the tested range (256-fold, ending at the top dose) of the same fit; the more sensitive the line, the further below 1. For part of these data: The top dose, if marked as inferred, was derived from the fitted curves, not read from the paper.

Experiments:
Assay in all cases: Viability of human cancer cell lines after 72 h of drug (GDSC screen)
HG-6-64-1 = compound: CCN1CCN(Cc2ccc(NC(=O)c3ccc(C)c(/C=C/c4cnc5[nH]ccc5c4OC)c3)cc2C(F)(F)F)CC1 [HG-6-64-1]; conditions: top dose 5.12 µM; top dose inferred
Method: (§1)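 Human cancer cell lines in 384-well plates, medium with 10% serum, drug for 72 h over a 256-fold dose range (nine 2-fold or five 4-fold steps up to the top dose). Adherent lines were fixed and stained with the nucleic acid dye Syto60, suspension lines read with resazurin; signal relative to control wells, capped at 0 and 100%. One two-parameter sigmoid per drug and line, fitted in a mixed model over all curves with the slope shared within a line.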

AV-951 = compound: COc1cc2nccc(Oc3ccc(NC(=O)Nc4cc(C)on4)c(Cl)c3)c2cc1OC [AV-951]; conditions: top dose 0.128 µM; top dose inferred
Method: as §1

PF-4708671 = compound: CCc1cncnc1N1CCN(Cc2nc3ccc(C(F)(F)F)cc3[nH]2)CC1 [PF-4708671]; conditions: top dose 10 µM; top dose inferred
Method: as §1

Trametinib = compound: CC(=O)Nc1cccc(-n2c(=O)n(C3CC3)c(=O)c3c(Nc4ccc(I)cc4F)n(C)c(=O)c(C)c32)c1 [Trametinib]; conditions: top dose 1 µM
Method: as §1

KIN001-244 = compound: O=C(NC(COc1ccc2[nH]c(=O)[nH]c2c1)c1ccccc1)c1cccn(Cc2ccc(F)c(F)c2)c1=O [KIN001-244]; conditions: top dose 20 µM; top dose inferred
Method: as §1

I-BET-762 = compound: CCNC(=O)C[C@@H]1N=C(c2ccc(Cl)cc2)c2cc(OC)ccc2-n2c(C)nnc21 [I-BET-762]; conditions: top dose 20 µM; top dose inferred
Method: as §1

Cell Line | AUC (HG-6-64-1) | IC50 (HG-6-64-1) [nM] | AUC (AV-951) | IC50 (AV-951) [nM] | AUC (PF-4708671) | IC50 (PF-4708671) [nM] | AUC (Trametinib) | IC50 (Trametinib) [nM] | AUC (KIN001-244) | IC50 (KIN001-244) [nM] | AUC (I-BET-762) | IC50 (I-BET-762) [nM]
SNU-387 (liver, adherent) | 0.663 | 973 | 0.984 | > 128 | 0.984 | > 10000 | 0.623 | 143 | 0.667 | 3900 | 0.783 | 9720
SNU-423 (liver, adherent) | 0.682 | 1130 | 0.969 | > 128 | 0.983 | > 10000 | 0.545 | 84.5 | 0.801 | 11800 | 0.941 | > 20000
SNU-449 (liver, adherent) | 0.617 | 694 | 0.986 | > 128 | 0.966 | > 10000 | 0.749 | 350 | 0.841 | 15800 | 0.978 | > 20000
SNU-C2B (large intestine, adherent) | 0.875 | > 5120 | 0.976 | > 128 | 0.925 | > 10000 | 0.728 | 349 | 0.93 | > 20000 | 0.783 | 11400
SU8686 (pancreas, adherent) | 0.884 | > 5120 | 0.981 | > 128 | 0.962 | > 10000 | 0.939 | > 1000 | 0.954 | > 20000 | 0.957 | > 20000
SU-DHL-5 (B-cell lymphoma, suspension) | 0.546 | 413 | 0.994 | > 128 | 0.971 | > 10000 | 0.132 | 7.05 | 0.844 | 9400 | 0.408 | 746
SU-DHL-10 (B-cell lymphoma, suspension) | 0.308 | 110 | 0.998 | > 128 | 0.991 | > 10000 | 0.997 | > 1000 | 0.866 | 9890 | 0.415 | 778
SUIT-2 (pancreas, adherent) | 0.593 | 583 | 0.984 | > 128 | 0.942 | > 10000 | 0.239 | 10.6 | 0.737 | 6190 | 0.543 | 1650
SW13 (adrenal gland, adherent) | 0.748 | 1670 | 0.987 | > 128 | 0.875 | > 10000 | 0.727 | 278 | 0.968 | > 20000 | 0.988 | > 20000
SW48 (large intestine, adherent) | 0.84 | 3510 | 0.987 | > 128 | 0.983 | > 10000 | 0.462 | 49.3 | 0.874 | 19400 | 0.878 | > 20000
SW156 (kidney, adherent) | 0.726 | 1530 | 0.984 | > 128 | 0.883 | > 10000 | 0.884 | > 1000 | 0.894 | > 20000 | 0.986 | > 20000
